This is one part of the list. These are further read-outs of the screen, such as a control signal, another cell line or another target. No call is given for them.

Experiment in all cases: Primary Screen for Target Class Profiling of Small Molecule Inhibitors of Methyltransferases
The target in assay [1] is Glycine N-methyltransferase (Homo sapiens) (UniProt Q14749). Particulars: purified enzyme, MTase-Glo SAH luminescence; measured here: GNMT inhibition; at 40 µM; stronger effect = lower value. The essentials: (§1)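 Each enzyme was reacted with SAM and its substrate, with compounds tested once at 40 uM; SAH formed was read by MTase-Glo luminescence.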
Assay [2] addresses Guanidinoacetate N-methyltransferase (Homo sapiens) (UniProt Q14353). Conditions: purified enzyme, MTase-Glo SAH luminescence; measured here: GAMT inhibition; at 40 µM; stronger effect = lower value. The procedure, abridged:
as §1

Assay [3] deals with Histamine N-methyltransferase (Homo sapiens) (UniProt P50135). Particulars: purified enzyme, MTase-Glo SAH luminescence; measured here: HNMT inhibition; at 40 µM; stronger effect = lower value. The essentials: as §1
Assay [4] addresses Nicotinamide N-methyltransferase (Homo sapiens) (UniProt P40261). Conditions: purified enzyme, MTase-Glo SAH luminescence; measured here: NNMT inhibition; at 40 µM; stronger effect = lower value. The procedure, abridged:
as §1

Assay [5] has as its target Phenylethanolamine N-methyltransferase (Homo sapiens) (UniProt P11086). Particulars: purified enzyme, MTase-Glo SAH luminescence; measured here: PNMT inhibition; at 40 µM; stronger effect = lower value. The essentials: as §1
% is scaled to controls: 0 for no effect and ±100 for the full control effect.

Consider `CC(=O)N1CCc2[nH]cnc2C12CCN(C(=O)CCn1nnnc1C)CC2`, for which the activity change, negative = inhibition in assay [1] is 1.58%; in assay [2], 2.33%; in assay [3] it was 1.81%; in assay [4], -2.65%; in assay [5] it was 0.228%.
Consider `CC1CCN(CC2CCCN(C(=O)COc3ccc(F)cc3)CC2)CC1` (stereo not given), for which the activity change, negative = inhibition in assay [1] is -3.28%; in assay [2], -3.11%; in assay [3], -18.4%; in assay [4], -0.467%; in assay [5] it was 8.6%.
For `O=CN1CCCC(n2cnc3cccnc32)C1` (stereo not given) the same measures were 0.484%, -6.3%, 2.66%, -5.01% and -1.07%.
The corresponding values for `C=C(CO)C12OC1C1(C)C(=CC2=O)C(O)C(O)CC1C` (stereo not given) are -0.384%, -6.44%, 4.06%, -15% and -2.38%.
Consider `COc1ccncc1C(=O)NC(=O)Nc1ccc(-c2ccccc2)c(C(F)(F)F)c1`, for which the activity change, negative = inhibition in assay [1] was 0.232%; in assay [2], 2.85%; in assay [3] it was 6.81%; in assay [4], -23.3%; in assay [5], 1.62%.
For `O=c1[nH]c(=S)[nH]c(-c2ccccc2)c1Cc1c(O)ccc2ccccc12` the same measures were -58.6%, 3.65%, -6.65%, -12.3% and 2.86%.
On to `CN1CCCCCCN(C(=O)NCc2ccccc2)CCC1=O`, for which the activity change, negative = inhibition is -1.27% in assay [1]; -1.22% in assay [2]; -0.547% in assay [3]; -3.25% in assay [4]; -0.858% in assay [5].
Take `C=C(C(=O)O)[C@@H]1CC[C@@]2(C)CC[C@H](O)[C@@]2(C(C)=O)C1`: the activity change, negative = inhibition in assay [1] is -4.16%; in assay [2] it was -7.48%; in assay [3], 5.26%; in assay [4], -17.2%; in assay [5] it was -0.953%.
For the compound `O=C(Cn1nc2n(Cc3ccc(F)cc3)c(=O)c3ccccc3n2c1=O)Nc1ccccc1F`, the activity change, negative = inhibition in assay [1] is -6.09%; in assay [2], -3.26%; in assay [3] it was -0.653%; in assay [4], -9.15%; in assay [5], -5.7%.
As for `c1nc(N2CCOCC2)c2c3c(sc2n1)CN(CC1CCCCC1)CC3`, the activity change, negative = inhibition in assay [1] was -5.5%; in assay [2], -8.76%; in assay [3], -5%; in assay [4], -48.9%; in assay [5], -10.8%.
The corresponding values for `Cc1ccc(CCNC(=O)CNC(=O)C2(C)Cn3c(cc4ccccc43)C(=O)N2C)cc1` (stereo not given) are -0.33%, 3.97%, 2.51%, 5.55% and 2.6%.
On to `Cc1ccc(Cn2c(=O)c3ccccc3n3c(CCC(=O)N4CCN(c5cccc(C)c5C)CC4)nnc23)cc1`, for which the activity change, negative = inhibition in assay [1] is 3.65%; in assay [2], -3.38%; in assay [3], 11.9%; in assay [4], -0.424%; in assay [5] it was -3.28%.
Take `CC1(C(=O)NC2CCCCCC2)Cn2c(ccc2-c2ccco2)C(=O)N1Cc1cccs1` (stereo not given): the activity change, negative = inhibition in assay [1] is -5.54%; in assay [2] it was 4.64%; in assay [3], -5.4%; in assay [4] it was -17%; in assay [5], -3.4%.
For `COc1c2c(c(C)c3c1C(=O)OC3)OC1(C)CC(O)C(C(C)(C)O)C(C)(CCC(=O)O)C1C2` (stereo not given) the same measures were -2.03%, 4.79%, 6.96%, -7.95% and 2.57%.
For `CC(C)CNC(=O)c1ccc2c(=O)n(Cc3ccccc3)c3nn(Cc4cccc(F)c4)c(=O)n3c2c1` the same measures were -8.07%, -2.78%, -3.74%, -3.53% and -3.31%.
Regarding `COc1ccc(NC(=O)CSc2nnc3n(CCc4ccccc4)c(=O)c4ccccc4n23)cc1`, the activity change, negative = inhibition was determined as 5.55% in assay [1]; 1.36% in assay [2]; 10.1% in assay [3]; 4.91% in assay [4]; 8.11% in assay [5].
In the case of `Cc1[nH]c2ccccc2c1CC(=O)N[C@@H](Cc1ccccc1)C(=O)N(C)c1ccccc1`, the activity change, negative = inhibition in assay [1] was -4.76%; in assay [2], -3.18%; in assay [3], 4.11%; in assay [4], -26.9%; in assay [5], -6.23%.
For `CC1CCC(NC(=O)Cn2ccc3cc(S(=O)(=O)N4CCCCC4)ccc32)CC1` (stereo not given) the same measures were -0.589%, 5.11%, -2.54%, -4.84% and -8.36%.
As for `CN1C(=O)c2cc(C(=O)Nc3ccccc3Cl)nn2CC1(C)C(=O)NC1CCCCCC1` (stereo not given), the activity change, negative = inhibition in assay [1] is -1.57%; in assay [2], 0.174%; in assay [3], 0.307%; in assay [4] it was -4.57%; in assay [5], -1.06%.
On to `CC(C)(CN1CCC(Cc2ccc(C(=O)O)cc2)C1)N1CCOCC1` (stereo not given), for which the activity change, negative = inhibition is -2.55% in assay [1]; -7% in assay [2]; -2.32% in assay [3]; -6.49% in assay [4]; -4.54% in assay [5].
The corresponding values for `COCC(=O)N1CCN(Cc2ccccc2-c2ccc(C)c(Cl)c2)CC1` are -2.99%, 1.02%, -2.73%, -7.39% and -2.66%.
The corresponding values for `C[C@]12CC[C@@H]3c4ccc(O)cc4CC[C@H]3[C@@H]1CC[C@@H]2O` are -34.7%, 10.5%, 5.61%, -13.9% and -2.23%.
Consider `COc1cccc(CNC(=O)C2(N3C[C@@H](C)O[C@@H](C)C3)Cc3ccccc3C2)c1`, for which the activity change, negative = inhibition was -9.59% in assay [1]; -9.63% in assay [2]; -6.27% in assay [3]; -20.5% in assay [4]; -2.67% in assay [5].
For `Cc1ccc(C(=O)Cn2nc3n(C(C)C)c(=O)c4ccc(C(=O)NC(C)C)cc4n3c2=O)c(C)c1` the same measures were 3.71%, 0.613%, 9.02%, 2% and 6.31%.
As to `CCC/C=C1\OC(=O)C2=C1CCC(O)C2O` (stereo not given), the activity change, negative = inhibition is 0% in assay [1]; 0.198% in assay [2]; 5.46% in assay [3]; -13.2% in assay [4]; 4.44% in assay [5].
The corresponding values for `CCN(CCNC(=O)Nc1ccccc1Br)c1cccc(C)c1` are 1.52%, 4.49%, -3.17%, -14.8% and -10.2%.
For the compound `COc1c(C)c2c(c(O)c1C/C=C(\C)CC/C=C(\C)CCC(=O)O)C(=O)OC2`, the activity change, negative = inhibition in assay [1] is 0%; in assay [2], -3.78%; in assay [3] it was -1.57%; in assay [4] it was -21.5%; in assay [5] it was -3.03%.
As to `CC1c2cccn2CCN1C(=O)Nc1ccccc1F` (stereo not given), the activity change, negative = inhibition in assay [1] was -0.802%; in assay [2], 0%; in assay [3], 1.81%; in assay [4], -4.42%; in assay [5], -0.386%.
For `CCC(C)NC(=O)c1ccc2c(=O)n(C(C)C)c3nn(Cc4cccc(C)c4)c(=O)n3c2c1` (stereo not given) the same measures were -4.81%, 0.999%, -4.11%, -3.32% and -2.16%.
For `Cc1c(NC(=O)N2CCOCC2)ccc2c1c1ccccc1n2C(C)C` the same measures were 1.65%, -1.14%, 10.8%, -23.1% and -2.49%.

These data come from PubChem BioAssay AID1745853 (National Center for Advancing Translational Sciences (NCATS), 2022).
